{"source": "PubChem BioAssay (NCATS)", "note": "The inconclusive results got no clear call from the source; some entries with a clear call stand among them for comparison. Potencies of inconclusive entries are left out as doubtful fits. Calls of active or inactive are those of the source. The call rests on the fitted dose curve; in most records, active means well fitted inhibition curve with a large enough effect; inconclusive means small, poorly fitted or top-dose-only effect; inactive means no such curve, though single readings can be large or run the other way. Potency means the concentration at half of the fitted maximal effect; tags describe the fitted curve by direction and shape."}
{"system": "Zika virus NS2B-NS3 protease (linked construct)", "assay": "Primary screen NINDS Rhodamine qHTS for Zika virus inhibitors (AID 1347160); further: nearly all actives have a fitted effect of over 55% in size", "conditions": "purified NS2B-NS3 protease, Rhodamine110 substrate fluorescence; series mostly up to 57.1 µM", "excerpt": "Avindra Nath, Ph.D., National Institute of Neurological Disorders and Stroke (NINDS), Bethesda, MD\nRadhakrishnan Padmanabhan, Ph.D., Georgetown University (GU), Washington D.C.\nZika Virus causes congenital defects, including microcephaly and is associated with Guillain-Barre syndrome, eningoencephalitis and myelitis in infected adult. […] Using a target-based approach, we hope to establish a screening paradigm to uncover novel, cell-active NS2B-NS3 protease (Zika Virus) specific inhibitors from NCATS' collection of small molecules using qHTS.\nFour assay panel was created to identify potential Zika Virus inhibitors. Namely, (1) GU unlinked NS2B-NS3 AMC tagged protease qHTS, (2) GU unlinked NS2B-NS3 Rhodamine tagged protease qHTS, (3) NINDS linked NS2B-NS3 AMC tagged protease qHTS, (4) NINDS linked NS2B-NS3 Rhodamine tagged protease qHTS. Active compounds were re-acquired and re-screened to confirm inhibition. Inhibitors were further screened against various confirmatory and counterscreens in dose response format.\nEarly Translation Branch (ETB)\nNational Center for Advancing Translational Sciences (NCATS), Rockville, MD\nNational Institute of Health (NIH), Bethesda, Maryland\nFor the linked assay, Nath lab (NINDS) provided the purified linked NS2B-NS3 protease which is consists of hydrophilic domain of NS2B linked to the NS3 protease domain by a flexible (-[…]-) linker. Control compound aprotinin is obtained from Thermo Scientific (#78432; Waltham, Massachusetts). Rhodamine110 substrate ([N-Cbz]-Nle-Lys-Arg-Arg-Rhod110-Arg-Arg-Lys-Nle-[N-Cbz]) was purchased from either Genscript or Bachem.\n1536-well Protease (Rhodamine110 Substrate) Assay:\nBriefly, 3 microL of enzyme (25 nM final concentration), in assay buffer (10 mM Tris-HCl pH 8.0 with 0.01% Tween 20) were dispensed into a 1,536-well solid-bottom black plate (Greiner Bio One, Monroe, NC). Twenty-three nL of compounds (final concentration range 7.28 nM to 114 microM) or control Aprotinin (final concentration range 3.47 nM to 114 microM) were transferred via Wako Pin-tool (Wako Automation, Richmond, VA). Samples were incubated (room temperature, protected from light) for 15 minutes followed by a 1 microL Rhodamine110 substrate addition (1.5 microM final concentration). Plates were then immediately read on a ViewLux High-throughput CCD imager (PerkinElmer, Waltham, MA) equipped with FITC fluorescence optics (480(20) nm excitation, 540(25) nm emission), then incubated (room temperature, protected from light) for 15 minutes (~15% conversion). The change in fluorescence intensity over the 15-minute reaction period was normalized against no-inhibitor and no-enzyme controls and the resulting percent inhibition data were fitted to a 4-parameter Hill equation. Aprotinin was used as intraplate control."}
{"smiles": "C=C1[C@@H](C)[C@H]2[C@H](Cc3ccccc3)NC(=O)[C@]23[C@H](OC(C)=O)/C=C/[C@](C)(O)C(=O)[C@@H](C)C/C=C/[C@H]3[C@@H]1O", "Potency": "inactive"}
{"smiles": "COC1CC(OC2CCC3(C)C(CCC4C3CCC3(C)C(C5=CC(=O)OC5)C(OC(C)=O)CC43O)C2)OC(C)C1OC1OC(CO)C(O)C(O)C1O", "note": "(stereo not given)", "Potency": "inactive"}
{"smiles": "CC1CCCC(O)CCC/C=C/c2cc(O)cc(O)c2C(=O)O1", "note": "(stereo not given)", "Potency": "inconclusive [inhibitor, partial curve, poor fit]"}
{"smiles": "O=S(=O)(c1ccccc1F)N1CCOc2c(N3CCNCC3)cccc21", "Potency": "inactive"}
{"smiles": "COC1CC(O[C@H]2CC[C@]3(C)C4CC[C@]5(C)[C@@H](C6=CC(=O)OC6)[C@@H](OC(C)=O)C[C@]5(O)C4CC[C@@H]3C2)OC(C)C1O[C@@H]1O[C@H](CO)[C@@H](O)[C@H](O)[C@H]1O", "note": "(stereo not given in full)", "Potency": "inconclusive [inhibitor, single point]"}
{"smiles": "CO[C@H]1[C@H](O)[C@H](O[C@H]2CC[C@]3(C=O)C4CC[C@]5(C)[C@H](C6=CC(=O)OC6)CC[C@]5(O)C4CC[C@@H]3C2)O[C@@H](C)[C@@H]1O", "note": "(stereo not given in full)", "Potency": "inactive"}
{"smiles": "COC(=O)C1(C)CCC(=O)C2(C)c3c(O)cc(C(C)C)cc3C(O)C(OC(C)=O)C12", "note": "(stereo not given)", "Potency": "inconclusive [inhibitor, partial curve, poor fit]"}
{"smiles": "CCN1C[C@]2(COC)CC[C@H](O)[C@@]34C5C[C@@H]6[C@@H](OC)C[C@@](OC(C)=O)(C5[C@@H]6OC(C)=O)[C@H]([C@H](OC)C23)[C@@H]14", "note": "(stereo not given in full)", "Potency": "inactive"}
{"smiles": "O=C1C=CC[C@@H]2[C@H]3CCCN4CCC[C@@H](CN12)[C@@H]34", "Potency": "inconclusive [inhibitor, single point]"}
{"smiles": "C=C1C[C@]2(O)[C@@]3(C)CCC(=O)C(C)(C)C3=C(O)C(=O)[C@@]2(C)[C@@H]2C(=O)O[C@@](C)(C(=O)OC)C(=O)[C@@]12C", "Potency": "inconclusive [inhibitor, single point]"}
{"smiles": "CO[C@@H]1[C@H](O)[C@@H](O[C@@H]2C[C@H]3CC[C@@H]4C(CC[C@]5(C)[C@@H](C6=CC(=O)OC6)CC[C@]45O)[C@@]3(C)[C@H](O)C2)O[C@H](C)[C@@H]1O", "note": "(stereo not given in full)", "Potency": "inconclusive [inhibitor, single point]"}
{"smiles": "CC/C=C/C=C/C1(C)OC(OC)=C(C(=O)C2C(C)C(=O)c3cc(OC)c(O)c(O)c3C2(C)O)C1=O", "note": "(stereo not given)", "Potency": "active: 10 µM"}
{"smiles": "C[C@@]1(CO)[C@H](O)CC[C@@]2(C)[C@H]1CC[C@H]1C[C@@H]3C[C@@]12CC[C@]3(O)CO", "Potency": "inconclusive [inhibitor, single point]"}
{"smiles": "CC(=O)Nc1ccc(OC[C@](C)(O)C(=O)Nc2ccc([N+](=O)[O-])c(C(F)(F)F)c2)cc1", "Potency": "inactive"}
{"smiles": "C[C@]12CC[C@H](O)CC1=CC[C@@H]1C2CC[C@]2(C)[C@@H](C3=CC(=O)OC3)CC[C@]12O", "note": "(stereo not given in full)", "Potency": "inactive"}
{"smiles": "CC[C@H]1C2CC3[C@@H]4N(C)c5ccccc5[C@]45C[C@@H]([C@H]2[C@H]5O)N3[C@@H]1O", "Potency": "inactive"}
{"smiles": "C=C(C)[C@@H]1[C@H]2OC(=O)[C@H]1[C@]1(O)C[C@H]3O[C@]34C(=O)O[C@H]2[C@]14C", "Potency": "inactive"}
{"smiles": "COc1ccc2c(c1)c(CCN(C)C)cn2S(=O)(=O)c1ccccc1", "Potency": "inconclusive [inhibitor, full curve, poor fit]"}
{"smiles": "CCN1C[C@]2(COC(=O)c3ccccc3N3C(=O)C[C@H](C)C3=O)CC[C@H](OC)[C@@]34[C@@H]5C[C@H]6[C@H](OC)[C@@H]5[C@](O)(C[C@@H]6OC)[C@](O)([C@@H](OC)[C@H]23)[C@@H]14", "Potency": "inactive"}
{"smiles": "C=C1C(=O)OC2/C=C(\\COO)CC/C=C(\\COC(C)=O)CC(OC(=O)C(C)CC)C12", "note": "(stereo not given)", "Potency": "inactive"}
{"smiles": "CN1C2CCC1CC(OC(=O)N1Cc3ccccc3NC1=O)C2", "note": "(stereo not given)", "Potency": "inactive"}
{"smiles": "C/C=C(/C)C(=O)O[C@H]1C(C)=C2[C@H]([C@@H]1OC(=O)CCCCCCC)[C@@](C)(OC(C)=O)C[C@H](OC(=O)CCC)[C@@]1(O)[C@H]2OC(=O)[C@@]1(C)O", "Potency": "inconclusive [inhibitor, partial curve, poor fit]"}
{"smiles": "CC[C@@H](C)[C@H]1C(=O)O[C@H](C(C)C)C(=O)N(C)[C@@H]([C@@H](C)CC)C(=O)O[C@H](C(C)C)C(=O)N(C)[C@@H]([C@H](C)CC)C(=O)O[C@H](C(C)C)C(=O)N1C", "Potency": "inconclusive [inhibitor, single point]"}
{"smiles": "CC[C@H]1C[C@@H]2CC[C@@H](O2)[C@@H](C)C(=O)O[C@H](CC)C[C@H]2CC[C@H](O2)[C@H](C)C(=O)O[C@@H](C)C[C@@H]2CC[C@@H](O2)[C@@H](C)C(=O)O[C@H](CC)C[C@H]2CC[C@H](O2)[C@H](C)C(=O)O1", "Potency": "inactive"}
{"smiles": "COc1cccc(NCC(F)Cn2c3ccc(Br)cc3c3cc(Br)ccc32)c1", "note": "(stereo not given)", "Potency": "inactive"}
{"smiles": "CN(C)c1cc2c(cc1Sc1nc3c(N)nccc3n1CCNCC(C)(C)C)OCO2", "Potency": "inconclusive [inhibitor, partial curve, poor fit]"}
{"smiles": "CC[C@H]1CN2CC[C@H]1C[C@H]2[C@H](O)c1ccnc2ccc(OC)cc12", "Potency": "inconclusive [inhibitor, full curve, poor fit]"}
{"smiles": "CC1(N2CCC(n3c([C@@H]4CCCNC4)nc4ccccc43)CC2)CCCCCCC1", "Potency": "inactive"}
{"smiles": "Cc1[nH]nc2ccc(-c3cncc(OC[C@@H](N)Cc4c[nH]c5ccccc45)c3)cc12", "Potency": "inactive"}
{"smiles": "C[C@@H]1O[C@@H](O[C@H]2C[C@@H](O)[C@]3(CO)[C@H]4[C@H](O)C[C@]5(C)[C@@H](C6=CC(=O)OC6)CC[C@]5(O)[C@@H]4CC[C@]3(O)C2)[C@H](O)[C@H](O)[C@H]1O", "Potency": "inactive"}
{"smiles": "COC[C@H]1OC(=O)c2coc3c2[C@@]1(C)C1=C(C3=O)C2CCC(=O)[C@@]2(C)C[C@H]1OC(C)=O", "note": "(stereo not given in full)", "Potency": "inactive"}
{"smiles": "Cc1nnc2n1-c1sc(CCc3ccc(CC(C)C)cc3)cc1C(c1ccccc1Cl)=NC2C", "note": "(stereo not given)", "Potency": "inconclusive [inhibitor, partial curve]"}
{"smiles": "CCCCCCC1C(=O)O[C@H](C)[C@H](NC(=O)c2cccc(NC=O)c2O)C(=O)O[C@@H](C)[C@@H]1OC(=O)CC(C)C", "note": "(stereo not given in full)", "Potency": "inconclusive [inhibitor, partial curve]"}
{"smiles": "C/C=C1/CN2CC[C@]34C(=Nc5ccccc53)[C@@H]2C[C@@H]1[C@H]4C(=O)OC", "Potency": "inconclusive [inhibitor, partial curve, poor fit]"}
{"smiles": "C[C@H]1O[C@@H](O[C@H]2CC[C@]3(CO)C4CC[C@]5(C)[C@@H](C6=CC(=O)OC6)CC[C@]5(O)[C@@H]4CC[C@H]3C2)[C@H](O)[C@H](O)[C@@H]1O[C@@H]1O[C@H](CO)[C@@H](O)[C@H](O)[C@H]1O", "note": "(stereo not given in full)", "Potency": "inconclusive [inhibitor, single point]"}
{"smiles": "COc1cc(CCNCc2ccccc2O)c(OC)cc1C#N", "Potency": "inactive"}
{"smiles": "CC(C)=CCC[C@]1(C)C=Cc2c(O)c3c(c(CC=C(C)C)c2O1)O[C@]12C(=C[C@@H]4CC1C(C)(C)O[C@@]2(C/C=C(/C)C(=O)O)C4=O)C3=O", "Potency": "active: 2.82 µM"}
{"smiles": "COC1CC(OC2CCC3(C=O)C(CCC4C3CCC3(C)C(C5=CC(=O)OC5)CCC43O)C2)OC(C)C1O", "note": "(stereo not given)", "Potency": "inconclusive [inhibitor, single point]"}
{"smiles": "CO[C@H]1C[C@H](O[C@H]2CC[C@@]3(C)C(=CCC4C3CC[C@]3(C)[C@@H](C5=CC(=O)OC5)CC[C@]43O)C2)O[C@@H](C)[C@@H]1O[C@@H]1O[C@H](CO[C@@H]2O[C@H](CO)[C@@H](O)[C@H](O)[C@H]2O)[C@@H](O)[C@H](O)[C@H]1O", "note": "(stereo not given in full)", "Potency": "inactive"}
{"smiles": "O=C(N[C@@H]1N=C(c2ccccc2F)c2cccc3c2N(CC3)C1=O)c1cc2ccccc2[nH]1", "Potency": "inconclusive [inhibitor, single point]"}
